In ChEMBL document CHEMBL1156829 one finds IFI data, which are given here for 27 compounds.

The full ranking holds about 5,400 compounds; the median of “IFI” is about 2, and the highest 2% start at about 22. This is one part of the list.

The nature of the assay: NOVARTIS: Inhibition Frequency Index (IFI) - the number of HTS assays where a compound showed > 50% inhibition/induction, expressed as a percentage of the number of assays in which the compound was tested. It is filed as functional.
`OCC[n+]1c2ccccc2nc2ccc(N3CCOCC3)cc21` had an IFI of 0%.

Consider `CC1(C)CC(=O)C(=CNc2nc3c(s2)CCc2c-3cnn2-c2ccccc2)C(=O)C1`, for which the IFI was 0%.

In turn, `S=P(OCC1C(COP(=S)(c2ccccc2)c2ccccc2)C1(Cl)Cl)(c1ccccc1)c1ccccc1` (configuration not stated) registered an IFI of 2.78%.

Consider `OCCNc1nc(Nc2ccccc2O)nc2ccccc12`, for which the IFI is 0%.

Consider `COc1cc2cc(C(=O)Nc3ccccc3)c(N)nc2cc1OC`, for which the IFI worked out at 4.48%.

`Cn1cnc(S(=O)(=O)Nc2ccccc2C(=O)NCC2CC2)c1` gave an IFI of 3.36%.

For `COC(=O)c1ccccc1NC(=O)COc1cccc(OC)c1`, the IFI is 0%.

The compound `CC(C)CCNc1ncc(C(=O)NCC(C)C)c(NCCc2ccccc2)n1` gave an IFI of 2.91%.

`COc1ccc2nc(Nc3nc(-c4ccccn4)cs3)sc2c1` gave an IFI of 14.3%.

As for `COc1ccc(C(=O)N2C(C(=O)Nc3ccc(C)cc3)CSC2c2ccc(C(C)(C)C)cc2)cc1` (configuration not stated), the IFI is 2.2%.

As to `Cc1ccc(C)n1-c1ccc(C(=O)N2CCC(C)CC2)cc1`, the IFI turned out to be 0%.

For `CCOC(=O)C(C)Oc1cccc2c(=O)n(CC(=O)Nc3ccc(OC(F)(F)F)cc3)ccc12` (configuration not stated), the IFI came to 0%.

`COc1ccc(C2=C(c3ccc(OC)cc3)C3(c4ccccc4)C(=O)C2(c2ccccc2)C2C(=O)N(c4ccc(C)cc4)C(=O)C23)cc1` (configuration not stated): the IFI is 0%.

In the case of `CN(C)CCN1CCN(c2cncc(-c3cccnc3)n2)CC1`, the IFI amounted to 0%.

`CCN1/C(=C/c2ccc3cc(C)ccc3[n+]2C)Sc2ccc3ccsc3c21`: the IFI stood at 10.6%.

As for `S=C(NN=Cc1ccccn1)NC1CC2CC1C1C=CCC21` (configuration not stated), the IFI is 32.5%.

Consider `O=C(NCc1ccccc1)c1cnc(NCCC(c2ccccc2)c2ccccc2)nc1NC1CC1`, for which the IFI came to 5.83%.

`CCCCN(C(=O)CCC(=O)Nc1cc(C)on1)C(C(=O)NC1CCCC1)c1ccc(C)o1` (configuration not stated) had an IFI of 1.82%.

`CCCNc1nc(OC(C(F)(F)F)C(F)(F)F)nc(OC(C(F)(F)F)C(F)(F)F)n1` displayed an IFI of 0%.

Compound `COc1ccc(S(=O)(=O)NCC2CCC(C(=O)NCC(OC)OC)CC2)cc1` (configuration not stated) displayed an IFI of 2.17%.

`Cc1ccc(Cl)cc1-n1c(SCc2ccccc2)nnc1C(Cc1ccccc1)NC(=O)C12CC3CC(CC(C3)C1)C2` (configuration not stated) came in with an IFI of 4.54%.

`CSc1cccc(NC(=O)C2C3C=CC4(O3)C2C(=O)N(C2CC2)C4C(=O)NC2CCCCC2)c1` (configuration not stated) returned an IFI of 0%.

Compound `Cn1nccc1C(OCC(=O)N1CCOCC1)c1ccc(F)cc1` (configuration not stated) yielded an IFI of 1.96%.

The compound `COC(=O)c1c(NC(=O)c2cc3ccccc3oc2=O)sc2c1CCC(C)C2` (configuration not stated) showed an IFI of 0%.

In turn, `CC(C)CN1C(=O)N(CCCc2cccnc2)C(=O)C12CCN(C1CCOCC1)CC2` displayed an IFI of 6.33%.

The compound `O=C(CSc1nccn1C1CCCC1)Nc1cc(C(F)(F)F)ccc1Cl` had an IFI of 0%.

The compound `CCOC(=O)C1=C(C)NC2=C(C(=O)CC(C)(C)C2)C1c1ccccn1` (configuration not stated) showed an IFI of 2.3%.
